From the antibiotic and cytotoxicity screens of Wong et al. (2023)
The other results are listed elsewhere or left out.

How the values were obtained:
[1] = test system: HSkMC (human skeletal muscle cells); assay: cytotoxicity call (relative viability < 0.9); settings: 10 µM
[2] = test system: HepG2; assay: cytotoxicity call (relative viability < 0.9); settings: 10 µM
[3] = test system: S. aureus RN4220; assay: growth inhibition call (relative growth <= 0.2); settings: 50 µM

Compound	cytotoxicity call [1]	cytotoxicity call [2]	growth inhibition call [3]
Cc1noc(C)c1S(=O)(=O)Nc1ccc2c(c1)C(=O)N([C@H](C)CO)C[C@@H](C)[C@H](CN(C)C(=O)NC(C)C)O2	inactive	inactive	inactive
Cc1noc(C)c1NC(=O)Nc1ccc2c(c1)C(=O)N([C@H](C)CO)C[C@H](C)[C@@H](CN(C)C(=O)NC(C)C)O2	inactive	inactive	inactive
C#CCN(O[C@@H](/C=C/[C@@H](O)Cc1ccccc1)C1CC1)[C@@H](Cc1ccc(-n2cc(COc3ccccc3/C=C(C)/C=C/C(=O)NO)nn2)cc1)C(=O)OC	inactive	inactive	inactive
CN1CCN(C(=O)[C@@H]2[C@@H](CO)[C@@H]3Cn4c(ccc(C5=CCCCC5)c4=O)[C@H]2N3S(C)(=O)=O)CC1	inactive	inactive	inactive
C[C@@H]1CN([C@@H](C)CO)C(=O)c2cc(NC(=O)CCN3CCOCC3)ccc2O[C@H]1CN(C)S(=O)(=O)c1ccc(Cl)cc1	inactive	inactive	inactive
COc1cccc(NC(=O)C[C@H]2CC[C@H]3[C@H](COc4ccc(NC(=O)C5CCOCC5)cc4C(=O)N3C)O2)c1	inactive	inactive	inactive
C[C@@H]1CCCCO[C@@H](CN(C)Cc2ccc(C(F)(F)F)cc2)[C@H](C)CN([C@H](C)CO)C(=O)c2cc(NC(=O)CCC(F)(F)F)ccc2O1	inactive	inactive	inactive
O=C(O)CCCCC1CCSS1 (configuration not stated)	inactive	inactive	inactive
Nc1nc(Cl)nc2c1ncn2[C@H]1C[C@H](O)[C@@H](CO)O1	active	inactive	inactive
COCC#Cc1ccc2c(c1)O[C@H](CN(C)S(=O)(=O)c1ccc(OC)cc1)[C@H](C)CN([C@H](C)CO)S2(=O)=O	inactive	inactive	inactive
CC(C)CC#Cc1ccc2c(c1)O[C@H](CN(C)C(=O)Cc1ccncc1)[C@@H](C)CN([C@@H](C)CO)S2(=O)=O	inactive	inactive	inactive
N[C@@H](Cc1ccc2nonc2c1)C(=O)O	inactive	inactive	inactive
O=C(C[C@@H]1CC[C@@H]2[C@H](COC[C@@H](O)CN2S(=O)(=O)c2ccc(F)cc2)O1)NCCN1CCCCC1	inactive	inactive	inactive
N#Cc1ccc(Oc2ccccn2)cc1	inactive	inactive	inactive
CS(=O)(=O)N(CC(=O)O)Cc1ccccc1	inactive	inactive	inactive
Cc1cc(=O)nc(C)[nH]1	inactive	inactive	inactive
COc1ccc(S(=O)(=O)Nc2ccc3c(c2)C(=O)N([C@@H](C)CO)C[C@@H](C)[C@@H](CN(C)Cc2ccc(C(=O)O)cc2)OCCCC[C@@H](C)O3)cc1	inactive	inactive	inactive
COc1cccc(NC(=O)N[C@H]2C=C[C@@H](CC(=O)N3CCN(C)CC3)O[C@@H]2CO)c1	inactive	inactive	inactive
C[C@@H]1CN([C@H](C)CO)C(=O)Cc2cc(NC(=O)Nc3ccc4c(c3)OCO4)ccc2O[C@H]1CN(C)Cc1ccc(Oc2ccccc2)cc1	inactive	inactive	inactive
C[C@H](NC(=O)N(C)C[C@H]1OCc2ccccc2-c2c(n(C)c3ccccc23)C(=O)N([C@H](C)CO)C[C@H]1C)c1ccccc1	inactive	inactive	inactive
O=C(CCCCCC(=O)N/N=C/[C@H](O)[C@@H](O)[C@H](O)[C@H](O)CO)NO	inactive	inactive	inactive
O=S1(=O)CC[C@H](S(=O)(=O)N2CCOCC2)C1	inactive	inactive	inactive
O=C(O)/C=C\C(=O)Nc1cccc(C(=O)O)c1	inactive	inactive	inactive
C[C@@H]1CCCCO[C@@H](CN(C)Cc2ccccc2)[C@@H](C)CN([C@H](C)CO)C(=O)c2cc(NS(=O)(=O)c3ccc(F)cc3)ccc2O1	inactive	inactive	inactive
Cc1noc(C)c1NC(=O)Nc1ccc2c(c1)C(=O)N([C@@H](C)CO)C[C@@H](C)[C@@H](CN(C)Cc1ccc3c(c1)OCO3)OCCCC[C@@H](C)O2	inactive	inactive	inactive
CC=Cc1ccc2n(c1=O)C[C@@H]1[C@@H](CO)[C@H](C(=O)NCCCN3CCOCC3)[C@H]2N1Cc1cocn1	inactive	inactive	inactive
C[C@@H]1CN([C@@H](C)CO)C(=O)c2cc(NS(=O)(=O)c3cn(C)cn3)ccc2O[C@H]1CN(C)C(=O)Nc1ccc(F)cc1	inactive	inactive	inactive
COc1ccc(NC(=O)Nc2ccc3c(c2)C(=O)N([C@H](C)CO)C[C@H](C)[C@H](CN(C)C(=O)Nc2ccc(F)cc2)OCCCC[C@@H](C)O3)cc1	inactive	inactive	inactive
C=CCOC(=O)[C@@H]1[C@H]2C(=O)O[C@H](c3ccccc3)[C@H](c3ccccc3)N2[C@H](c2ccc(OCCOC(=O)[C@H]3C[C@H]4C(=O)N[C@@H](CCCC[N+](C)(C)C)C(=O)N4[C@H]3c3ccc(O)cc3)cc2)[C@@]12C(=O)Nc1ccc(I)cc12	inactive	inactive	inactive
